For this data set the following is noted: Gallus gallus, 35 °C, GdnHCl, CD, Sodium acetate 0.1 M, reversible: Unknown.

As to “Lysozyme C wild type (no sequence given)”, the denaturant m value came out at 2.71 kcal/mol/M (pH 3.5), 2.71 kcal/mol/M (pH 4.5), 2.71 kcal/mol/M (pH 5) and 2.71 kcal/mol/M (pH 5.5). The “denaturant midpoint (higher = more stable)” value (shortened to “denaturant midpoint”) (pH 3.5) is 2.71 M, the “denaturant midpoint” value (pH 4.5) worked out at 3.69 M, the “denaturant midpoint” value (pH 5) came to 3.63 M and the “denaturant midpoint” value (pH 5.5) is 3.61 M. Also, the unfolding free energy runs as follows: (pH 3.5) 7.34 kcal/mol; (pH 4.5) 9.99 kcal/mol; (pH 5) 9.84 kcal/mol; (pH 5.5) 9.78 kcal/mol.

Source of the values: FireProtDB (doi:10.1021/bi00157a021).
